Counter-ions that a name gives are not always drawn. Whole data set: some 2,000 compounds, median “fractional viability relative to vehicle” near 0.92, cut for the lowest 2% near 0.11. The list shows a part of the results.
Tested on: TYKNU
Assay: fractional viability relative to vehicle; TYKNU is a high-grade serous ovarian cancer line; higher = less growth inhibition
Details: 72 h, genotype: OPA1 knockout (sgOPA1 #2)
Summary of the method: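 Drug treatment lasted 72 h, with cells grown at 37 °C in 5% CO2 in RPMI 1640 supplemented with 10% FBS. Beforehand, TYKNU control cells or their lentiCRISPRv2 knockout derivatives had been seeded at 500 cells per well into drug-stamped 384-well plates carrying a ~2100-compound library at 2 or 10 μM, in duplicate. Viability came from Cell Titer Glo luminescence, with averaged duplicate treatment wells normalised to duplicate control wells in the same plate position.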

SMILES: OC(CN1CCN(c2cccc(Cl)c2)CC1)C(c1ccccc1)c1ccccc1 (stereo not given)
- fractional viability (2uM): 1.1
- fractional viability (10uM): 0.947

SMILES: CC/C(=C(/CC)c1ccc(O)cc1)c1ccc(O)cc1 [Diethylstilbestrol]
- fractional viability (2uM): 1.02
- fractional viability (10uM): 0.85

SMILES: CC1=C(/C=C/C(C)=C/C=C/C(C)=C\C(=O)O)C(C)(C)CCC1 [Isotretinoin]
- fractional viability (2uM): 0.872
- fractional viability (10uM): 0.747

SMILES: NC(N)=Nc1nc(CSCC/C(N)=N/S(N)(=O)=O)cs1 [Famotidine]
- fractional viability (2uM): 0.978
- fractional viability (10uM): 0.858

SMILES: Nc1cc(F)ccc1NC(=O)/C=C/c1cnn(C/C=C/c2ccccc2)c1
- fractional viability (2uM): 0.912
- fractional viability (10uM): 0.802

SMILES: CCOc1ccc2nc3cc(N)ccc3c(N)c2c1 [Ethacridine lactate monohydrate]
- fractional viability (2uM): 0.729
- fractional viability (10uM): 0.356

SMILES: CN(Cc1cnc2nc(N)nc(N)c2n1)c1ccc(C(=O)N[C@@H](CCC(=O)O)C(=O)O)cc1 [Methotrexate]
- fractional viability (2uM): 0.66
- fractional viability (10uM): 0.651

SMILES: COc1cc(C(C)=O)ccc1O [Apocynin]
- fractional viability (2uM): 1.01
- fractional viability (10uM): 0.873

SMILES: O=C(CCCCCCC(=O)Nc1ccc([C@H]2O[C@@H](CSc3nc(-c4ccccc4)c(-c4ccccc4)o3)C[C@@H](c3ccc(CO)cc3)O2)cc1)NO [Tubacin]
- fractional viability (2uM): 1.06
- fractional viability (10uM): 0.628

SMILES: C=CC(C)(C)c1cc(/C=C/C(=O)c2ccc(O)cc2)c(OC)cc1O [Licochalcone A]
- fractional viability (2uM): 0.923
- fractional viability (10uM): 0.906

SMILES: Cc1ncc(Cl)cc1NCc1ccc(C(=O)N[C@@H](CC2CCCC2)C(=O)NC2CC2)s1
- fractional viability (2uM): 0.99
- fractional viability (10uM): 0.922

SMILES: CN1CCN(c2c(F)cc3c(=O)c(C(=O)O)cn4c3c2OCN4C)CC1 [Marbofloxacin]
- fractional viability (2uM): 1.16
- fractional viability (10uM): 0.908

SMILES: CCOC(=O)c1ccc(N)cc1 [Benzocaine]
- fractional viability (2uM): 0.957
- fractional viability (10uM): 0.932

SMILES: C[C@H]1[C@H](C)CC[C@]2(C(=O)O)CC[C@]3(C)C(=CC[C@@H]4[C@@]5(C)C[C@@H](O)[C@H](O)[C@@](C)(CO)[C@@H]5CC[C@]43C)[C@H]12 [Asiatic Acid]
- fractional viability (2uM): 1.1
- fractional viability (10uM): 0.888

SMILES: OC(CCCN1CCCCC1)(c1ccccc1)c1ccccc1 [Diphenidol HCl]
- fractional viability (2uM): 0.958
- fractional viability (10uM): 0.834

SMILES: CCN(CC)CCOC(=O)C(c1ccccc1)c1ccccc1 [Adiphenine HCl]
- fractional viability (2uM): 0.994
- fractional viability (10uM): 0.932

SMILES: CCCCCCCCCCCCc1ccc(S(=O)(=O)Nc2nncs2)cc1
- fractional viability (2uM): 1.06
- fractional viability (10uM): 1.05

SMILES: c1cncc(CN2CCC(n3ncc4c(N5CCOCC5)nc(-c5ccc6[nH]ccc6c5)nc43)CC2)c1
- fractional viability (2uM): 0.74
- fractional viability (10uM): 0.373

SMILES: COC1CCN(C(=O)c2cc(Cc3n[nH]c(=O)c4ccccc34)ccc2F)CC1
- fractional viability (2uM): 0.865
- fractional viability (10uM): 0.822

SMILES: C=CC(=O)Nc1ccc(CN2C(=O)N(c3cc(OC)cc(OC)c3)Cc3cnc(Nc4ccc(N5CCN(C)CC5)cc4)nc32)cc1
- fractional viability (2uM): 1.03
- fractional viability (10uM): 0.15

SMILES: Cn1cc(-c2ccncc2)c(-c2ccc(OCc3ccc4ccccc4n3)cc2)n1
- fractional viability (2uM): 1.19
- fractional viability (10uM): 1.19

SMILES: O=C(O)[C@H]1O[C@@H](Oc2cc3oc(-c4ccccc4)cc(=O)c3c(O)c2O)[C@H](O)[C@@H](O)[C@@H]1O [Baicalin]
- fractional viability (2uM): 0.776
- fractional viability (10uM): 0.933

SMILES: Cc1cc(C)c(S(=O)(=O)n2cc(C)cc2C)c(C)c1
- fractional viability (2uM): 0.79
- fractional viability (10uM): 0.706

SMILES: Cc1[nH]c2ccccc2c1CCNCc1ccc(/C=C/C(=O)NO)cc1 [Panobinostat (LBH589)]
- fractional viability (2uM): 0.207
- fractional viability (10uM): 0.183

SMILES: Cc1nc(-c2cccnc2)sc1C(=O)Nc1ccccc1-c1cn2c(CN3CCOCC3)csc2n1
- fractional viability (2uM): 0.748
- fractional viability (10uM): 0.855

SMILES: O=c1ccc2ccccc2o1 [Coumarin]
- fractional viability (2uM): 0.843
- fractional viability (10uM): 0.858

SMILES: Nc1nc(=S)c2ncn([C@H]3C[C@H](O)[C@@H](CO)O3)c2[nH]1
- fractional viability (2uM): 1.03
- fractional viability (10uM): 0.763

SMILES: Nc1ccc(C(=O)Nc2cccc(-c3nc(N4CCOCC4)c4oc5ncccc5c4n3)c2)cn1
- fractional viability (2uM): 0.423
- fractional viability (10uM): 0.208

SMILES: CN(C)CCCN1c2ccccc2Sc2ccc(Cl)cc21 [Chlorpromazine HCl]
- fractional viability (2uM): 1.11
- fractional viability (10uM): 0.755

SMILES: C[C@H](Nc1ncnc2[nH]cnc12)c1cc2ccc(F)cc2nc1-c1ccccn1
- fractional viability (2uM): 0.879
- fractional viability (10uM): 0.836

SMILES: CCOc1ccccc1OC(c1ccccc1)C1CNCCO1 (stereo not given) [Reboxetine mesylate]
- fractional viability (2uM): 1.17
- fractional viability (10uM): 0.888

SMILES: O=c1[nH]cnc2c1ncn2[C@@H]1O[C@H](CO)[C@@H](O)[C@H]1O [Inosine]
- fractional viability (2uM): 1.08
- fractional viability (10uM): 1.01

SMILES: O=C1NC(=O)/C(=C/c2ccc3c(c2)OC(F)(F)O3)S1
- fractional viability (2uM): 0.902
- fractional viability (10uM): 0.926

SMILES: COc1cc([C@@H]2c3cc4c(cc3[C@@H](O[C@@H]3O[C@@H]5CO[C@@H](c6cccs6)O[C@H]5[C@H](O)[C@H]3O)[C@H]3COC(=O)[C@H]23)OCO4)cc(OC)c1O [Teniposide]
- fractional viability (2uM): 0.551
- fractional viability (10uM): 0.269

SMILES: Cc1nc(Nc2ncc(C(=O)Nc3c(C)cccc3Cl)s2)cc(N2CCN(CCO)CC2)n1 [Dasatinib]
- fractional viability (2uM): 0.862
- fractional viability (10uM): 0.783

SMILES: CCN1CCN(Cc2ccc(-c3cc4c(N[C@H](C)c5ccccc5)ncnc4[nH]3)cc2)CC1
- fractional viability (2uM): 1.08
- fractional viability (10uM): 0.607

SMILES: CCOC(=O)c1c(CSc2ccccc2)n(C)c2cc(Br)c(O)c(CN(C)C)c12 [Arbidol HCl]
- fractional viability (2uM): 1.36
- fractional viability (10uM): 0.822

SMILES: Cc1cc(Nc2nc(N[C@@H](C)c3ccc(F)cc3)c(C#N)cc2F)n[nH]1
- fractional viability (2uM): 0.704
- fractional viability (10uM): 0.641

SMILES: Cc1nc(-c2ccc(OCC(C)C)c(C#N)c2)sc1C(=O)O [Febuxostat]
- fractional viability (2uM): 1.2
- fractional viability (10uM): 0.93

SMILES: COc1ccc(CC2c3cc(OC)c(OC)cc3CC[N+]2(C)CCC(=O)OCCCCCOC(=O)CC[N+]2(C)CCc3cc(OC)c(OC)cc3C2Cc2ccc(OC)c(OC)c2)cc1OC (stereo not given) [Atracurium Besylate]
- fractional viability (2uM): 1.08
- fractional viability (10uM): 0.975

SMILES: CC(=O)[C@H]1CC[C@H]2[C@@H]3CC=C4C[C@@H](O)CC[C@]4(C)[C@H]3CC[C@]12C [Pregnenolone]
- fractional viability (2uM): 0.969
- fractional viability (10uM): 0.879

SMILES: CN(C)c1ccc(C(=C2C=CC(=[N+](C)C)C=C2)c2ccc(N(C)C)cc2)cc1 [Crystal Violet]
- fractional viability (2uM): 0.323
- fractional viability (10uM): 0.0953

SMILES: CC(C(=O)O)c1ccc2c(c1)CC(=O)c1ccccc1S2 (stereo not given) [Zaltoprofen]
- fractional viability (2uM): 1.02
- fractional viability (10uM): 0.944

SMILES: Oc1cc2c(cc1O)[C@@H]1c3ccc(O)c(O)c3OC[C@]1(O)C2 [Hematoxylin]
- fractional viability (2uM): 0.963
- fractional viability (10uM): 0.85

SMILES: C=C1/C(=C\C=C2/CCC[C@]3(C)[C@@H]([C@H](C)/C=C/[C@H](C)C(C)C)CC[C@@H]23)C[C@@H](O)C[C@@H]1O [Doxercalciferol]
- fractional viability (2uM): 1.05
- fractional viability (10uM): 0.787
